{"source": "ChEMBL document CHEMBL4888484", "about": "“Replenishing the malaria drug discovery pipeline: Screening and hit evaluation of the MMV Hit Generation Library 1 (HGL1) against asexual blood stage Plasmodium falciparum ,using a nano luciferase reporter read-out” (2022)", "note": "In all, about 150,000 compounds went through this assay and about 540 (0.36%) showed an effect of 50% or more. The list shows a part of the results."}
{"system": "Plasmodium falciparum", "assay": "Primary screen in NF54 nanoGlo assay, in single point, at 2uM, 72h; a lower Z score goes with more inhibition", "format": "functional, Erythrocyte", "details": "timepoint 72 hour", "units": {"% Inhibition": "%"}}
{"smiles": "CCOC(=O)[C@H]1CCCN(c2nc(-c3ccc4c(c3)OCO4)c3c(N)n(C)nc3n2)C1", "% Inhibition": 4, "Z score": -0.48}
{"smiles": "CC1(C)COC[C@H](CS(=O)(=O)N(Cc2cccnc2)C2CC2)O1", "% Inhibition": -5, "Z score": 0.52}
{"smiles": "Cc1ccc(-n2cccn2)c(CN2CCC(c3cc(O)nc(C)n3)CC2)c1", "% Inhibition": -5, "Z score": 0.85}
{"smiles": "CS(=O)(=O)C1CN(S(=O)(=O)[C@H]2C[C@@H]2c2ccccc2)C1", "% Inhibition": 4, "Z score": -0.34}
{"smiles": "O=C(N[C@@]12COC[C@@H]1C2)c1cc2c(o1)CCCC2", "% Inhibition": -25, "Z score": 2.72}
{"smiles": "O=C(O)c1csc(CNC(=O)C2(c3ccc(F)cc3F)CCCC2)n1", "% Inhibition": -8, "Z score": 0.81}
{"smiles": "C#Cc1cccc(N(C(=O)Cc2ccc(C)nc2)C(C)C)c1", "% Inhibition": -7, "Z score": 0.91}
{"smiles": "C[C@H](O)[C@H](NC(=O)c1ccccc1Nc1ccc(F)cc1)C(=O)OCc1ccccc1", "% Inhibition": -10, "Z score": 1.6}
{"smiles": "O=C(NCC1(O)CCCC1)C(=O)Nc1cccc(N2CCCC2=O)c1", "% Inhibition": -8, "Z score": 0.86}
{"smiles": "O=S(=O)(Cc1ccccc1)N1CC(N(Cc2ccccc2)C2CCOCC2)C1", "% Inhibition": -3, "Z score": 0.55}
{"smiles": "Cc1cnc(-c2ccccc2)n1C[C@H]1CCCN(Cc2cccc(F)c2)C1", "% Inhibition": -5, "Z score": 0.65}
{"smiles": "Cn1c(N2CCCC2)c(C#N)c(=O)n(C)c1=O", "% Inhibition": -10, "Z score": 1.28}
{"smiles": "Cc1cc(NC(=O)CN2CCN(Cc3ccc4c(c3)CCO4)CC2)on1", "% Inhibition": 18, "Z score": -2.3}
{"smiles": "CC(C)COC(=O)c1cc(-c2cc(C(=O)OCC(C)C)c3ccccc3n2)nc2ccccc12", "% Inhibition": -10, "Z score": 1.36}
{"smiles": "CN(CCOc1ccccc1Cl)CC(=O)N[C@H]1CCCc2ccccc21", "% Inhibition": -5, "Z score": 0.8}
{"smiles": "Cc1nc(C)c(C(=O)N[C@](C)(c2ccc(Br)cc2)C(C)C)o1", "% Inhibition": 30, "Z score": -4.06}
{"smiles": "CO[C@H]1CN(c2noc(-c3ccccc3)n2)CC[C@H]1N", "% Inhibition": -12, "Z score": 2.29}
{"smiles": "COCC1(C2CCC2)CN(C(=O)Nc2ccc(F)cc2-c2cnn(C)c2)C1", "% Inhibition": -2, "Z score": 0.37}
{"smiles": "CC(=O)NCCNC(=O)CCC(=O)N1CCc2c(Cl)cccc21", "% Inhibition": 35, "Z score": -3.98}
{"smiles": "CCCn1nccc1NC(=O)c1c(C)noc1C", "% Inhibition": -1, "Z score": 0.29}
{"smiles": "CC(C)(C)c1cc(CN2CC[C@H](NC(=O)c3ccccc3)[C@@H](O)C2)n[nH]1", "% Inhibition": 6, "Z score": -1.17}
{"smiles": "CC[C@H]1CN(C(=O)c2ccc3[nH]nnc3c2)CCO1", "% Inhibition": -15, "Z score": 1.99}
{"smiles": "NC(CC(=O)NC1CCCC1)=NOCCOc1ccc(F)cc1Cl", "% Inhibition": -11, "Z score": 1.34}
{"smiles": "CCNC(=O)c1nc(N(C)C)c2c(C)scc2n1", "% Inhibition": 7, "Z score": -0.81}
{"smiles": "CCn1ccc(C(=O)N[C@H]2CCOC[C@@H]2OC)n1", "% Inhibition": -7, "Z score": 0.83}
{"smiles": "CCCN(CCC)C(=O)CCc1ccccc1O", "% Inhibition": -11, "Z score": 1.76}
{"smiles": "COc1cccc(NC(=O)CN2CCN(Cc3ccc(F)cc3)S2(=O)=O)c1", "% Inhibition": -18, "Z score": 1.57}
{"smiles": "Cc1noc(C)c1CCNS(=O)(=O)c1ccc(C(C)(C)C)s1", "% Inhibition": -8, "Z score": 0.77}
{"smiles": "C[C@H](Oc1ccccc1N)C(F)(F)F", "% Inhibition": -8, "Z score": 0.78}
{"smiles": "CC(C)OCCCNC(=O)C[C@@H](Cn1cnnn1)c1ccc(Cl)cc1", "% Inhibition": -10, "Z score": 1.3}
{"smiles": "CC(C)CNC(=O)[C@@H]1CCN1S(=O)(=O)c1ccccc1", "% Inhibition": -4, "Z score": 0.61}
{"smiles": "CC(C)Cn1cc(NCc2nc(-c3cnn(C)c3)cs2)cn1", "% Inhibition": -1, "Z score": 0.15}
{"smiles": "C#CCCNC(=O)c1ccnc(OCCOC)c1", "% Inhibition": -4, "Z score": 0.75}
{"smiles": "Cc1ccc([C@@H]2C=C(c3ccccc3)N(CC(=O)NCc3ccccc3C)c3nnnn32)cc1", "% Inhibition": -6, "Z score": 0.59}
{"smiles": "COC(=O)c1nc(NC(=O)c2cc(-c3ccc4c(c3)CCO4)[nH]n2)sc1C", "% Inhibition": -10, "Z score": 1.03}
{"smiles": "CC(C)c1nc([C@@H]2CCCCCN2Cc2nnc(C3CC3)o2)no1", "% Inhibition": 3, "Z score": -0.38}
{"smiles": "CC(C)c1nnc([C@H](C)NC(=O)C2(N3CCOCC3)CCCCC2)o1", "% Inhibition": -15, "Z score": 1.57}
{"smiles": "CC(C)(C)OC(=O)NC[C@H]1CCCN(C(=O)c2cccn3ccnc23)C1", "% Inhibition": -4, "Z score": 0.59}
{"smiles": "CCO[C@H]1CN(Cc2noc(C3CCCC3)n2)C[C@@H]1O", "% Inhibition": -1, "Z score": 0.1}
{"smiles": "CC(C)CC[C@H](C)N1CCC(n2cc(C3CC3)nn2)CC1", "% Inhibition": -3, "Z score": 0.45}
{"smiles": "O=C1CC[C@H](C(=O)NCC(O)c2cc3ccccc3s2)N1", "note": "(stereo not given in full)", "% Inhibition": 2, "Z score": -0.38}
{"smiles": "CN1c2cccnc2CN(C(=O)Nc2ccc(OC(F)(F)F)cc2)CC[C@H]1CO", "% Inhibition": 7, "Z score": -0.86}
{"smiles": "Cc1ccc(C)c(N/C(=N\\OCc2ccc(Cl)cc2)c2nonc2N)c1", "% Inhibition": -1, "Z score": 0.28}
{"smiles": "COc1ccc(CNC(=O)c2ccc(-c3nc(CN4CCc5ccccc54)c(C)o3)cc2)c(OC)c1", "% Inhibition": -13, "Z score": 1.89}
{"smiles": "O=C1CN(c2nnc(C(F)(F)F)s2)CCN1CC1CCCC1", "% Inhibition": -5, "Z score": 0.49}
{"smiles": "CCCCC(=O)Nc1cc(NC(=O)c2c[nH]nc2C(C)C)ccc1OC", "% Inhibition": -14, "Z score": 1.83}
{"smiles": "Fc1cccc(F)c1CNC[C@@H]1NCCc2ccccc21", "% Inhibition": 47, "Z score": -5.59}
{"smiles": "CC1CN(S(=O)(=O)c2cccc(C(=O)Nc3ccccc3N(C)C)c2)CC(C)O1", "note": "(stereo not given)", "% Inhibition": 5, "Z score": -0.56}
{"smiles": "CCCc1ncncc1C(=O)NCC[C@H]1CCOC1", "% Inhibition": -2, "Z score": 0.49}
{"smiles": "Cc1cccc(C)c1N1CCc2cnn(C(=O)Nc3cccc(Cl)c3)c21", "% Inhibition": 13, "Z score": -1.63}
{"smiles": "COc1nccc(-c2cccc(-n3cccn3)c2)c1C#N", "% Inhibition": -9, "Z score": 0.92}
{"smiles": "CCNC(=O)N1CCC2(CC1)C[C@@H](c1ccccc1)C(=O)N(C1CC1)C2", "% Inhibition": -13, "Z score": 1.61}
{"smiles": "Cn1c(CNC(=O)C2CCC2)nc2c1CN(S(=O)(=O)c1ccc(Cl)cc1)CC2", "% Inhibition": -10, "Z score": 1.1}
{"smiles": "COc1ccc(N2CCN(c3cc(C)nn4cnnc34)CC2)cc1", "% Inhibition": -14, "Z score": 2.34}
{"smiles": "CC(=Cc1csc(-c2ccccn2)n1)c1cnccn1", "% Inhibition": -9, "Z score": 0.93}
{"smiles": "Cc1cc2c(cc1C)N(C(=O)COc1cccnc1)CC2", "% Inhibition": -2, "Z score": 0.22}
{"smiles": "CCCOc1ccc(N2C(=O)C3ON(C(CC(=O)O)c4ccccc4)C(c4ccccc4)C3C2=O)cc1", "note": "(stereo not given)", "% Inhibition": 2, "Z score": -0.36}
{"smiles": "O=C(NCc1cccnc1)NC1CCCC1Oc1ccccc1", "note": "(stereo not given)", "% Inhibition": -8, "Z score": 0.86}
{"smiles": "NC(=O)c1cnc2n1CCN(C(=O)COc1ccccc1)C2", "% Inhibition": -8, "Z score": 0.8}
{"smiles": "O=C(c1cc(C2CC2)n[nH]1)N1CCOCC1", "% Inhibition": -14, "Z score": 1.56}
{"smiles": "CCN1C[C@H](CN(C)C(=O)c2ccoc2)Oc2ccccc21", "% Inhibition": -8, "Z score": 0.7}
{"smiles": "CC(C)(C)OC(=O)N1CCC(OC(=O)n2ccnc2)CC1", "% Inhibition": -4, "Z score": 0.52}
{"smiles": "CN1CCN(CC(=O)NCC2(Cc3ccccc3)CCCC2)CC1", "% Inhibition": 1, "Z score": -0.11}
{"smiles": "CC(NCC1COC(C)(C)O1)c1cc(Cl)c(N)c(Cl)c1", "note": "(stereo not given)", "% Inhibition": 2, "Z score": -0.28}
{"smiles": "O=C(NCCc1c[nH]cn1)c1ccc2c(c1)C(=O)N(C1CCCCCC1)C2=O", "% Inhibition": -1, "Z score": 0.19}
{"smiles": "CCCn1cc(CNc2ncc(CC)cn2)cn1", "% Inhibition": -2, "Z score": 0.37}
{"smiles": "O=C(c1n[nH]c2c1CCC2)N1CCO[C@H](c2ccccc2)C1", "% Inhibition": -2, "Z score": 0.26}
{"smiles": "O=S(=O)(N[C@H]1CCCc2cn(CC(F)(F)F)nc21)c1cccnc1", "% Inhibition": -7, "Z score": 0.7}
{"smiles": "CCCN(C(=O)c1ccccc1OCC)c1nc(-c2ccc(C3CCCCC3)cc2)cs1", "% Inhibition": -9, "Z score": 1.41}
{"smiles": "COC(=O)NC(C(=O)N1CCCC(CNC(=O)c2ccncc2Cl)C1)C(C)C", "note": "(stereo not given)", "% Inhibition": -5, "Z score": 0.42}
{"smiles": "CCCCNC(=O)N1CCN(c2nc(CCC)nc3onc(-c4ccccc4)c23)CC1", "% Inhibition": 3, "Z score": -0.49}
{"smiles": "CC(C)N1CCC(CC(=O)NCCn2cc(Cl)cn2)CC1", "% Inhibition": 0, "Z score": -0.04}
{"smiles": "Cc1nnc(C23CC(CN2C(=O)NC[C@H](C)Oc2ccc(C(C)C)cc2)C3)o1", "% Inhibition": -10, "Z score": 1.64}
{"smiles": "C[C@@H](c1nccs1)N(C)C(=O)c1cnc(-c2cccnc2)nc1", "% Inhibition": 2, "Z score": -0.26}
{"smiles": "COc1ccc(N(CC(=O)NCCC#N)C(C)C)cc1F", "% Inhibition": -11, "Z score": 1.64}
{"smiles": "CCN(CC)c1ccc(C(C#N)N2CCOC(C)C2)cc1", "note": "(stereo not given)", "% Inhibition": -9, "Z score": 1.28}
{"smiles": "Cc1nc2c(NC[C@@H]3C[C@H](CO)N(C)[C@@H]3c3ccccc3F)ncnc2o1", "% Inhibition": -12, "Z score": 1.68}
{"smiles": "COCC1(C(=O)N2CCCN(CC3CC3)[C@H](C(C)C)C2)CCC1", "% Inhibition": -4, "Z score": 0.87}
{"smiles": "O=C(c1ccoc1)N(Cc1ccco1)[C@H]1CCS(=O)(=O)C1", "% Inhibition": 14, "Z score": -1.88}
{"smiles": "COc1ccc(CNC(=O)C2CCC(Cn3c(=O)[nH]c4ccsc4c3=O)CC2)cc1", "note": "(stereo not given)", "% Inhibition": -11, "Z score": 1.1}
{"smiles": "Cc1csc(-c2noc(Cc3c[nH]c4ccccc34)n2)n1", "% Inhibition": 6, "Z score": -1.15}
{"smiles": "CCOCCC1(C(=O)N(C)CCN(C)C(=O)[C@H]2CC[C@H](CC)CC2)CCC1", "% Inhibition": -1, "Z score": 0.16}
{"smiles": "COc1cc(S(=O)(=O)Nc2ccccc2N(C)C)sn1", "% Inhibition": 11, "Z score": -1.46}
{"smiles": "Cc1ccc(CNc2ccc(S(C)(=O)=O)cc2)c(=O)n1C", "% Inhibition": 33, "Z score": -4.41}
{"smiles": "c1cc(-c2nnn(CCc3ccc4c(c3)CCO4)n2)cs1", "% Inhibition": -10, "Z score": 1.01}
